Reference: PubChem BioAssay AID651567 (National Center for Advancing Translational Sciences (NCATS), 2012)
The campaign covered roughly 1,200 compounds. About 10 (0.8%) were called active. Inconclusive results (about 4%) are left out. The call rests on the fitted dose curve; in most records, active means well fitted inhibition curve with a large enough effect; inconclusive means small, poorly fitted or top-dose-only effect; inactive means no such curve, though single readings can be large or run the other way. This is one part of the list.

assay: qHTS Assay to Find Inhibitors of Chronic Active B-Cell Receptor Signaling: Hit Validation in OCI-Ly3 Assay; details: OCI-Ly3 IkB-luciferase reporter, Chroma-Glo luminescence, 4 h; series mostly up to 46.1 µM; activity change, negative = inhibition: at the top concentration
Summary of the method: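 OCI-Ly3 cells in IMDM with 0.5% FBS get compound plus 80ng/ml doxycycline (dispensed solution), 4 hrs at 37C. Chroma-Glo read of green IkB-luc and red unfused luc; green/red ratio normalized to basal (0%) and 10 uM MG-132 (100%); concentration-response curves for each signal.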
On the % scale 0 is the no-effect control and ±100 the full control effect; potency means the concentration at half of the fitted maximal effect.

SMILES | activity change, negative = inhibition | Potency
O=C(Oc1c(CN2CCOCC2)cc(Cl)c2cccnc12)c1cccs1 | inactive: -0.194% | –
O=[N+]([O-])c1cccnc1SCc1c(F)cccc1Cl | inactive: -1.19% | –
Cc1ccc(NC(=O)C(=O)NCC2CCCN2S(=O)(=O)c2cccs2)cc1C (configuration not stated) | inactive: -0.0507% | –
Cc1ccc(NC(=S)NC(=O)c2ccc(F)cc2)cc1S(=O)(=O)Nc1cccc(Cl)c1 | inactive: -2.28% | –
CNC(=O)[C@H]1O[C@@H](n2cnc3c(NCc4cccc(I)c4)nc(Cl)nc32)[C@H](O)[C@@H]1O | inactive: -0.243% | –
C=CCn1c(SCC(=O)NCCO)nc2sc(C)c(C)c2c1=O | inactive: -0.853% | –
COc1ccccc1-c1nnc2sc(-c3ccc(N(C)C)cc3)nn12 | inactive: -1.68% | –
COc1ccc(NC(=O)/C(C#N)=C\c2cc(C)n(-c3ccc4c(c3)OCO4)c2C)cc1 | inactive: -4.51% | –
O=C(c1ccc(Cl)cc1)c1cc([N+](=O)[O-])ccc1N1CCOCC1 | inactive: -4.74% | –
CC(/C=N/NC(=O)c1cc(-c2ccccc2)nc2ccccc12)=C\c1ccco1 | inactive: -1.08% | –
C=CCn1c(SCc2c(C)noc2C)nc2ccccc2c1=O | inactive: -6.69% | –
CCCC(=O)Nc1ccc(C(=O)N/N=C/c2cccnc2)cc1 | inactive: -0.0916% | –
Cc1ccc2nc(NC(=O)c3ccccn3)sc2c1 | inactive: 14.4% | –
Cc1ccnc(NC(=O)c2cccc(S(=O)(=O)Nc3ccc(C)cc3C)c2)c1 | inactive: -2.93% | –
CCNC(=S)N/N=C(\C)c1ccc(Cl)s1 | inactive: -2.08% | –
CC1CC(C)CN(S(=O)(=O)c2ccc(NC(=O)c3ccc(=O)[nH]c3)cc2)C1 (configuration not stated) | inactive: -2.1% | –
Cc1cc(C)c(S(=O)(=O)Nc2ccc3c4c(cccc24)CC3)c(C)c1 | inactive: -5.19% | –
CCOC(=O)C1(C)C(C(=O)OC)=C(c2ccc(OC)cc2)c2ccccc2N1C(=O)OC (configuration not stated) | inactive: -2.24% | –
CC(=NNC(=O)c1cc(C)nc2ccccc12)c1ccc(N2CCOCC2)cc1 | inactive: 0.0416% | –
O=Cc1ccc(O)c2ncccc12 | inactive: -0.452% | –
C/C(Cl)=C\Cn1c(O)c(N=NC(N)=S)c2cc(Br)ccc21 | inactive: 64.8% | –
COc1ccc(/C=N/NC(=O)c2ccc3c(c2)NC(=O)C(C)(C)O3)cc1OC | inactive: -1.1% | –

SMILES | activity change, negative = inhibition | Potency
COc1ccc(S(=O)(=O)N2CCCCC2)cc1NS(=O)(=O)c1cc(Cl)ccc1Cl | inactive: -0.0248% | –
COc1cc(/C=N/NC(=O)C2C3CCCCC32C)cc(Br)c1O (configuration not stated) | inactive: -1.39% | –
COc1ccc(OC)c(Nc2c3c(nc4ccccc24)CCC3)c1 | inactive: -0.775% | –
COC(=O)c1cn(C(=O)c2ccc(OC)cc2)c2ccccc12 | inactive: -5.28% | –
O=C(/C=C/c1cccc(Cl)c1)c1nc2ccccc2[nH]1 | inactive: 0.678% | –
CCn1c(SCC(=O)c2ccc(Cl)cc2)nnc1C(C)C | inactive: -1.19% | –
COc1ccc(S(=O)(=O)Nc2ccc3c(c2)n(C)c(=O)n3C)cc1F | inactive: -0.825% | –
COc1cc(C#Cc2ccc3cc(CCCO)oc(=O)c3c2)cc(OC)c1 | inactive: -11.1% | –
Cc1ccc(C(=O)c2cc([N+](=O)[O-])ccc2N2CCCCC2)c(C)c1 | inactive: -5.12% | –
CC(=O)c1cc(C#N)c(SCCC(C)C)nc1C | inactive: -0.523% | –
CCCSc1nc(=O)n2cccc(C)c2n1 | inactive: 0.711% | –
N#CC1=C2SCC(O)(c3ccccc3)N2C(=O)CC1c1ccccc1 (configuration not stated) | inactive: -7.68% | –
COc1ccc(NC(=O)C2CCCN2S(=O)(=O)c2cccc3cccnc23)cc1OC (configuration not stated) | inactive: -0.277% | –
CCOC(=O)C(C)/C(C)=N/NC(N)=S (configuration not stated) | inactive: -1.09% | –
CCN(C(=O)COC(=O)c1cc([N+](=O)[O-])ccc1N1CCOCC1)c1ccccc1 | inactive: -0.198% | –
CNC(=O)[C@H]1O[C@@H](n2cnc3c(NCc4cccc(I)c4)ncnc32)[C@H](O)[C@@H]1O | inactive: -0.832% | –
C[C@]12CC[C@H]3C(=CCc4cc(O)ccc43)[C@@H]1CCC2=O | inactive: -1.6% | –
CCOCCOC(=O)c1[nH]c2c(c1C)C(=O)CC(c1ccccc1)C2 (configuration not stated) | inactive: -0.56% | –
COc1cc(/C=N/N(C)c2ccccc2)ccc1O | inactive: 0.432% | –
CCOc1ccc2c(c1)OC(c1ccc(OC)cc1)(C(F)(F)F)NC2=O (configuration not stated) | inactive: -4.69% | –
CC1=NN(C(N)=S)C(=O)C1N=Nc1cccc(C)c1 (configuration not stated) | inactive: 2.43% | –
CCOc1cc(/C=N/O)ccc1OCc1ccccc1F | inactive: -0.187% | –

SMILES | activity change, negative = inhibition | Potency
COc1ccc(C2=NOC(C(=O)NCc3ccc(F)cc3)C2)cc1 (configuration not stated) | inactive: -0.587% | –
COc1ccc(/C=C/C(=O)c2cc(F)ccc2OC(=O)c2ccccc2C)cc1OC | inactive: -6.24% | –
CCOC(=O)N1CCN(S(=O)(=O)c2ccc(C(=O)Nc3ccc(F)cc3F)cc2)CC1 | inactive: -0.791% | –
COc1ccc(-c2cnnn2-c2ccc(N)cc2)cc1OC | inactive: -1.14% | –
COc1cc(OC)c(OC)cc1/C=C/C(=O)c1ccc(NS(=O)(=O)c2ccc(C)cc2)cc1 | inactive: -17.4% | –
O=C(Oc1ccc(Cl)c2cccnc12)C12CC3CC(CC(C3)C1)C2 | inactive: -2.91% | –
COc1ccc(C=O)cc1OS(=O)(=O)c1ccc(NC(C)=O)cc1 | inactive: -0.831% | –
O=C(Nc1nc2c(F)cc(F)cc2s1)c1ccccn1 | inactive: 15.7% | –
CC(O)c1cccc(-c2ccc(CN3C[C@]4(CO)O[C@@H](CO)C[C@@H]4S3(=O)=O)cc2)c1 (some centres not stated) | inactive: -0.341% | –
CCOc1ccc(S(=O)(=O)N2c3ccccc3CC2C)cc1 (configuration not stated) | inactive: -2.53% | –
COc1ccc(/C(C)=N/Nc2ccc(C(=O)O)cc2)cc1OC | inactive: 18.1% | –
CCc1ccc(S(=O)(=O)Nc2ccc(-c3ccc4nnc(C)n4n3)cc2)s1 | inactive: -3% | –
CCOc1ccc(C2=Nn3c(nnc3-c3ccccc3OC)SC2)cc1 | inactive: -7.45% | –
CCOC(=O)C1CCN(C(=O)CSc2cc(=O)n(CC)c3ccccc23)CC1 | inactive: -4.1% | –
Oc1ccc(Nc2nc(-c3cccnc3)cs2)cc1 | inactive: -4.58% | –
COc1ccccc1N1CCN(Cc2ccc(O)c3ncccc23)CC1 | inactive: -3.1% | –
CN1CCc2cccc3c2[C@H]1Cc1ccc(O)c(O)c1-3 | inactive: -15.5% | –
COc1ccccc1-c1noc(CSc2nc(N)cc(=O)[nH]2)n1 | inactive: 0.632% | –
Cc1nc2ccc(S(=O)(=O)Nc3cccc(-c4nc5cccnc5s4)c3)cc2s1 | inactive: -0.852% | –
COc1cc(C(=O)N/N=C/c2ccsc2C)cc(OC)c1OC | inactive: -1.4% | –
O=C1Nc2ccc(Cl)cc2/C1=C/C1CC=CCC1 (configuration not stated) | inactive: -1.9% | –
COc1cc(/C=N/NC(=S)Nc2cccnc2)cc(OC)c1OC | inactive: -2.43% | –

SMILES | activity change, negative = inhibition | Potency
Cc1c(CCC(=O)N[C@@H](C)C(=O)O)c(=O)oc2cc3oc4c(c3cc12)CCCC4 | inactive: -0.942% | –
COc1ccc(N2C(=O)CS/C2=N\C(=S)Nc2ccccc2)cc1 | inactive: -0.277% | –
C=CCn1c(O)c(N=NC(=S)Nc2ccccc2C)c2cc(S(=O)(=O)N3CCOCC3)ccc21 | inactive: -12.1% | –
COc1cc(C(=O)Nc2nc(C)c(Cc3ccc4c(c3)OCO4)s2)cc(OC)c1OC | inactive: -6.45% | –
CCc1ccc(/C=N/NC(=O)c2cc(-c3ccncc3)nc3ccccc23)s1 | inactive: -7.67% | –
COc1ccc(CNC(=O)COc2ccc(C(=O)c3ccc(F)cc3)cc2)cc1 | inactive: -2.85% | –
C=CCNC(=S)N/N=C/c1ccc(C)s1 | inactive: -0.257% | –
Cc1ccc(/C=N/NC(=O)c2n[nH]c3c2CCCC3)cc1 | inactive: -1.46% | –
COc1ccc(OC)c(C2CC(=O)Nc3n[nH]c(-c4ccccc4)c32)c1 (configuration not stated) | inactive: -1.08% | –
COc1ccc2c(c1)C(C)=CC(C)(C)N2S(=O)(=O)c1ccc(NC(C)=O)cc1 | inactive: -3.09% | –
S=C(Nc1ccccc1)Nc1nccs1 | inactive: 76.3% | –
CCc1c(C)c(C#N)c2nc3ccccc3n2c1Cl | inactive: -27.7% | –
COc1ccc(/C=C(\C#N)c2c[nH]c3ccccc23)cc1 | inactive: -1.65% | –
COc1ccc(-c2nn(-c3ccccc3)cc2C(=O)NC(=S)NNC(=O)c2ccncc2)cc1 | inactive: -1.59% | –
O=C(/C=C/c1ccccc1)c1ccc(NC2=NCCCS2)cc1 | inactive: -4.98% | –
CC(=O)Nc1ccc(Oc2cc(C#N)c(C#N)cc2N2CCOCC2)cc1 | inactive: -0.185% | –
COc1ccc(-c2[nH]ncc2/C=C(\C#N)C(=O)NC2CC2)cc1 | inactive: -0.218% | –
COc1cccc(Nc2sc(C(=O)c3ccc(F)cc3)c(N)c2C(=O)NCc2ccc(C)cc2)c1 | inactive: -2.94% | –
COc1cc(/C=C/c2ccc3cccc(O)c3n2)cc(Br)c1OC | – | active: 10.3 µM
C=CCOc1c(Cl)cc(C(=S)N2CCCC2)cc1OCC | inactive: -1.03% | –
Cc1ccc(C(=O)Nc2nc(C)c(C(=O)Nc3ccc4c(c3)CCC4)s2)cc1 | inactive: -3.13% | –
COc1ccccc1C1CC(=O)Nc2cc3c(cc21)OCCO3 (configuration not stated) | inactive: -3.86% | –

SMILES | activity change, negative = inhibition | Potency
O=C(CSc1cccc[n+]1[O-])c1ccc(-c2ccccc2)cc1 | inactive: 0.0764% | –
Cc1ccc(C#N)c(SCc2ccccc2F)n1 | inactive: -1.05% | –
COC(=O)c1[nH]c2ccccc2c1NC(=O)CN1CCN(C/C=C/c2ccccc2)CC1 | inactive: -1.56% | –
Cc1csc(N/N=C/c2ccccn2)n1 | inactive: 25% | –
CCC1=Nc2cc(C(=O)NCc3ccco3)ccc2Sc2ccccc21 | inactive: -2.12% | –
CC(=O)N1c2ccc(C)cc2C(c2ccccc2)CC1C (configuration not stated) | inactive: -2.03% | –
O=C(/C=C/c1ccccc1Cl)c1cccnc1 | inactive: -0.735% | –
COc1cc(/C=C\C(=O)OCn2nnc3ccccc3c2=O)cc(OC)c1OC | inactive: -4.34% | –
CCOC(=O)C1=C(N)Oc2ccc3ccccc3c2C1c1ccc(O)c(OC)c1 (configuration not stated) | inactive: -4.36% | –
CCC1=Nc2cc(C(=O)NCCCOC)ccc2Sc2ccccc21 | inactive: -2.48% | –
Cc1ccc(S(=O)(=O)N(C)C[C@@H]2Oc3ccc(NC(=O)CCC(F)(F)F)cc3CC(=O)N([C@@H](C)CO)C[C@@H]2C)cc1 | inactive: -2.69% | –
CCOC(=O)c1cnc(Nc2nc3ccccc3o2)nc1CSC(=S)N1CCCCC1 | inactive: -1.31% | –
CCN(CC)c1ccc(Nc2cc3n(c(=O)n2)CCc2cc(OC)c(OC)cc2-3)cc1 | inactive: -2.64% | –
COc1ccc(CCn2c(N)cc(=O)[nH]c2=S)cc1OC | inactive: -0.287% | –
CCOC(=O)c1c(C=O)c(C)n(Cc2ccccc2)c1C | inactive: -0.467% | –
Cc1ccc(C(=O)c2cc([N+](=O)[O-])ccc2N2CCOCC2)c(C)c1 | inactive: -3.69% | –
COCCCNC(=O)C[C@H]1C[C@H](C(=O)N2CCCCC2)[C@@]2(C)c3[nH]c4ccc(Cl)cc4c3CCN2C1=O | inactive: -2.17% | –
Cc1[nH]n(C(N)=S)c(=O)c1N=Nc1ccc([N+](=O)[O-])cc1Cl | inactive: 1.77% | –
CCOc1ccccc1NC(=O)N1CCC(N2CCN(Cc3ccccc3)C(=O)C2=O)CC1 | inactive: -0.966% | –
